Test results as given in article PMC4336329 (PLoS ONE, 2015).
The whole screen tested about 310,000 compounds, of which about 14,000 (4.5%) showed an effect of 50% or more. Effects have a minus sign here. This is one part of the list.

The molecules below were run against human ether-à-go-go-related gene (hERG) potassium channel (human, UniProt Q12809) (assay: primary screen, population patch clamp on CHO cells stably expressing hERG).
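Note: peak tail current of the secondary pulse compared with the same well before compound.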

human ether-à-go-go-related gene (hERG) potassium channel, sequence (Q12809 whole entry, looked up): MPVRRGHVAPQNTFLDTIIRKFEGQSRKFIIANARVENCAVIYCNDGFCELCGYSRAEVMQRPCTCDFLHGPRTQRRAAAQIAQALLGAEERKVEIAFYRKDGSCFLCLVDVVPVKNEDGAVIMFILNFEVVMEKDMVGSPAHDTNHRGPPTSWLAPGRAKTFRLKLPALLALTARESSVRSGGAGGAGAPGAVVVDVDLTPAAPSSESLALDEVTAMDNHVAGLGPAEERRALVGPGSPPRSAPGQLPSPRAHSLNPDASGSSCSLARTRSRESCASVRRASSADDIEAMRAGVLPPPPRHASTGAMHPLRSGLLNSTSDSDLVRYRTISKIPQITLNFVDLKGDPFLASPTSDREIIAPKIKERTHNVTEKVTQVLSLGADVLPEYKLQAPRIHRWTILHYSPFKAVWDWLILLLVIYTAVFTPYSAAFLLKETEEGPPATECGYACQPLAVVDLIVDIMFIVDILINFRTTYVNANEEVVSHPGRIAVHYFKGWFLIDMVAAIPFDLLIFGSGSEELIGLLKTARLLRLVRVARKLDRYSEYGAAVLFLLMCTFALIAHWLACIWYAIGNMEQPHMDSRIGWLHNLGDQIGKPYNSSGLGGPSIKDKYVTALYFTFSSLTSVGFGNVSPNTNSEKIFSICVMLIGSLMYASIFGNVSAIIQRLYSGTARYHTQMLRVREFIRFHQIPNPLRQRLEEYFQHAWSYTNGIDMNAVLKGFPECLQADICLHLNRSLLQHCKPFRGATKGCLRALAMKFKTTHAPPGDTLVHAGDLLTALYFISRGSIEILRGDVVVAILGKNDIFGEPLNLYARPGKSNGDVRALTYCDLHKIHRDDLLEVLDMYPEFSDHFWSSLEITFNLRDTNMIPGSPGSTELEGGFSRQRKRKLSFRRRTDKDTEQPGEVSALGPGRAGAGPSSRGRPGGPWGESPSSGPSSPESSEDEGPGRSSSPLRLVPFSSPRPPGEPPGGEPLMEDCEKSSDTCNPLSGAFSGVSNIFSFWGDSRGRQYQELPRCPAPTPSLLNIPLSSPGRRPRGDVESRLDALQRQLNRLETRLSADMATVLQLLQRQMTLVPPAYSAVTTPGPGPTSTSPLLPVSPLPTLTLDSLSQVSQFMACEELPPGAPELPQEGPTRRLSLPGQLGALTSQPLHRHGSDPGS

SMILES | hERG current change (%, negative = inhibition) at 10uM [%]
CN(C)/C=C/C(=O)c1cnc(-c2ccccc2)s1 | 0.319
Nn1c(SCc2ccc(Br)cc2)nnc1-c1ccncc1 | -38.5
CC1CCCCC1NC(=O)c1ccc(S(=O)(=O)NNC(=O)c2ccncc2)cc1 (stereo not shown) | 14.1
COc1ccccc1N(C(=O)c1snc(C(N)=O)c1N)C(C(=O)NCCC(C)C)c1ccco1 (stereo not shown) | -20.5
CC1(C)C2CCC1(CS(=O)(=O)Nc1ccc(S(=O)(=O)NC3CCCCC3)cc1)C(=O)C2 (stereo not shown) | -30.9
CC1CCC(NC(=O)CC2Oc3ccccc3NC2=O)CC1 (stereo not shown) | 3.8
CCCN1C2CCCC1CC(NC(=O)c1ccccc1F)C2 (stereo not shown) | -21.7
O=[N+]([O-])c1ccccc1O[C@@H]1O[C@H](CO)[C@H](O)[C@H](O)[C@H]1O | 11
CCOC(=O)Cn1c(SC)nc2sc3c(c2c1=O)CC(C)(C)OC3 | 2.04
COc1ccc(N(CC(=O)NCCC2=CCCCC2)S(=O)(=O)c2ccccc2)c(OC)c1 | -8.73
Cc1ccc(S(=O)(=O)N2CCC(C(=O)OCC(=O)NCc3ccco3)CC2)cc1C | -23.8
CN(Cc1ccccc1F)Cc1cc(=O)oc2cc(O)c(Cl)cc12 | 12.6
COc1ccccc1C(=O)NNC1=NS(=O)(=O)c2ccccc21 | 20.3
Cc1cccc(NC(=O)N2CCCC2C(=O)Nc2ccccc2)c1 (stereo not shown) | 3.62
C[C@@H](C(=O)OCn1nnc2ccccc2c1=O)N1C(=O)C2CCCCC2C1=O (stereo partly shown) | 9.61
Cc1ccc(C)c(Cn2nnc(C(=O)Nc3ccc4c(c3)OCCO4)c2N)c1 | 2.15
O=C(CCC(=O)N1CCN(c2ccccc2F)CC1)N1CCN(c2ccccc2)CC1 | -22.8
O=C(CN1CCN(C(=O)N2CCCCC2)CC1)Nc1ccc(F)cc1 | -74.9
CCn1nc(C)c(/C=N/NC(=O)c2nc3nc(C)cc(C)n3n2)c1C | 14.1
COc1cc(-c2cc(-c3ccccc3)nc(SCC(=O)Nc3nccs3)c2C#N)cc(OC)c1OC | 17.9
CCOC(=O)C1CCN(C(=O)N(CC)CC)CC1 | 11
COc1cccc(NC(=O)Nc2ccc(Cc3ccncc3)cc2)c1 | 11

SMILES | hERG current change (%, negative = inhibition) at 10uM [%]
CCOc1ccc(CC(=O)N/N=C(\C)c2cccnc2)cc1OCC | 17.8
COc1cccc(N(C(=O)Cc2cccs2)C(C(=O)NC2CCCC2)c2ccncc2)c1 (stereo not shown) | 1.74
CCc1nnc(NS(=O)(=O)c2ccc(NC(=O)c3ccccc3O)cc2)s1 | 16.5
COc1ccc(/C=C(/NC(=O)c2ccco2)C(=O)Nc2cccc(C(=O)O)c2)cc1 | 18.7
CCOC(=O)CCCNC(=O)COC(=O)c1cc(C)cc(C)c1 | -16.3
CC(=O)OC1OCCOC1NC(=S)Nc1ccc(C)cc1 (stereo not shown) | 5.94
COc1ccc(C)cc1NC(=O)C(OC(=O)c1cnccn1)c1ccccc1 (stereo not shown) | -27.5
O=C(CSCc1ccc(C(=O)O)cc1)Nc1ccccc1 | 2.97
Cc1onc(-c2ccccc2Cl)c1C(=O)N(C)C1CCCCC1 | 0.889
Cc1ccc(C)c(Cn2nnc3c(=O)[nH]c(C4CCCN(C(=O)C5CCCCC5)C4)nc32)c1 (stereo not shown) | -51.5
C#CCOc1c(Br)cc(/C=N/O)cc1OCC | -3.85
CC(SCC(=O)Nc1ccc(S(=O)(=O)N2CCCCC2)cc1)C(=O)O (stereo not shown) | 8.35
CC(Nc1cc(C)cc(C)c1)=[N+](C)CCNS(=O)(=O)c1ccc(Cl)cc1.[I-] | -48.5
CCOc1ccccc1OCC(=O)Nc1cc(S(=O)(=O)N2CCCCC2)ccc1OC | -16
CS(=O)(=O)c1ccc(NC(=O)c2cccc(S(=O)(=O)N3CCN(Cc4ccccc4)CC3)c2)cc1 | -1.25
CCSc1nnc(NC(=O)C2C3CCC(C3)C2C(=O)O)s1 (stereo not shown) | 34.5
CCC(CC)c1nnc(NC(=O)c2cc(-c3ccccc3)nc3ccccc23)s1 | 9.31
O=C1CCC(C(=O)OCC(=O)N2N=C3/C(=C/c4ccccc4)CCCC3C2c2ccccc2)N1 (stereo not shown) | -70.3
Cc1ccc(-c2nc(C3CCN(S(=O)(=O)c4ccc(C(F)(F)F)cc4)CC3)no2)cc1 | 19.6
CCOC(=O)N1CCN(C(=O)C(NC(=O)c2ccc(C(C)(C)C)cc2)C(C)C)CC1 (stereo not shown) | -37.7
O=C(Cc1ccc(-n2c(=O)c3ccccc3n(Cc3ccccc3F)c2=O)cc1)NCC1CCCO1 (stereo not shown) | 4.96
COc1cccc(-n2c(SCC(=O)N3CCOCC3)nc3c([nH]c4ccccc43)c2=O)c1 | -4.88

SMILES | hERG current change (%, negative = inhibition) at 10uM [%]
CC(CN1CCCCC1)OC(=O)c1cccc(F)c1.Cl (stereo not shown) | 6.39
CN1CCc2c(C#N)c(N3CCCCC3)nc(N3CCOCC3)c2C1 | -24.8
NC(=O)c1cc(NC(=O)CCNS(=O)(=O)c2cccc(C(F)(F)F)c2)cc(C(N)=O)c1 | 13
CCCCC1=CC2=CC(=O)C(C)(OC(=O)CC)C(=O)C2=CN1Cc1ccc2c(c1)OCO2 (stereo not shown) | -55.3
Cn1c(=O)oc2cc(S(=O)(=O)N3CCc4ccccc4C3)ccc21 | 13.3
CCOc1ccc(-c2cc(C(=O)NCCCn3ccnc3)c3ccccc3n2)cc1 | -16
Cn1ccs/c1=N\S(=O)(=O)c1ccc(C(C)(C)C)cc1 | -11.5
CCOc1ccc(NC(=S)NC(=O)Cc2ccccc2)cc1 | 25.5
COc1cccc(-c2nn(-c3ccccc3)cc2CNC(C)Cn2cncn2)c1 (stereo not shown) | -42.5
COc1cc(NC(=O)CCCNC(=O)c2ccc(Cl)cc2)cc(OC)c1OC | 10.2
CCCCCOC(=O)C1=C(C)Nc2nnnn2C1c1ccc(OC)c(OC)c1OC (stereo not shown) | -41.4
C/C(=N\Nc1ccc(F)cc1F)c1ccc(Br)s1 | -4.68
CCOc1ccc(CCNC(=O)Nc2cccc(OC)c2)cc1OCC | 14.5
O=C(c1cc(-c2ccccc2)nc2ccccc12)N1CCOCC1 | 27.6
CN(C)c1ccc(/C=N/NC(=O)c2cnc3ccccc3c2)cc1 | 2.71
N=C1/C(=C/c2ccc(OC(=O)c3ccco3)cc2)C(=O)N=C2SC=CN12 | 31.7
O=C(NC(=S)N1CCN(c2ccc([N+](=O)[O-])cc2)CC1)c1ccccc1Cl | -39.8
COc1ccc(OCC(=O)O/N=C(\N)Cc2ccc(Cl)cc2Cl)cc1 | 9.69
CCN1CCN(C(=O)C(C)Sc2nnc3nc(C)cc(C)n23)CC1 (stereo not shown) | -4.58
COc1ccc(COC(=O)CCS(=O)(=O)c2ccc(C)cc2)cc1F | -21.3
COc1ccc(C2(C(=O)NCCc3ccccc3)CCCC2)cc1OC | 12.2
C/C(=N\NC(=O)c1cc2ccccc2cc1O)c1ccccn1 | -3.94

SMILES | hERG current change (%, negative = inhibition) at 10uM [%]
Cc1n[nH]c(=O)nc1NC(C)c1ccccc1 (stereo not shown) | -1.42
Cc1nn2c3c(cnc2c1-c1ccccc1)C(=O)CC(c1ccccc1)C3 (stereo not shown) | 7.17
O=C(O)c1ccc(-n2c(-c3cc(C4CC4)[nH]n3)n[nH]c2=S)cc1 | 18.5
O=C(CCN1C(=O)c2ccncc2C1=O)Nc1ccc(F)cc1 | 0.499
COc1cccc(/C=N/n2nnnc2N)c1OCC#N | 7.86
COc1ccc(CNC(=O)CN2C(=O)C3C4C=CC(C4)C3C2=O)cc1 (stereo not shown) | 19.2
Cc1oc(-c2ccc(Cl)cc2)[n+]([O-])c1C.Cl | 10.4
C=CCNC(=S)N1CCc2[nH]c3ccccc3c2C1 | 4.64
COc1ccccc1N1CCN(CC(=O)Nc2c(C)n[nH]c2C)CC1 | 9.97
CCn1ccnc1CN(C)C(=O)c1cc(COc2ccccc2SC)on1 | -10.7
CCN(CC)C(=O)Cn1cc(C(=O)C(=O)NCc2cccs2)c2ccccc21 | 5.77
COc1ccccc1C(=O)NC(CCSC)C(=O)NNC(=O)c1ccccc1C (stereo not shown) | -11.8
Cc1ccc(Cn2c3ccccc3c3cn[nH]c(=O)c32)cc1 | 6.46
Cn1cc(CN2CCN(c3cnccn3)CC2)c(-c2cccc(Cl)c2)n1 | 6.29
O=C(C1=C[C@H](C2CCCCC2)C[C@H](OCCCCO)O1)N1CCN(Cc2ccc3c(c2)OCO3)CC1 | -56.5
CC(=O)NC1C(c2nc3ccccc3s2)=C(c2ccccc2)C(=O)N1c1ccc(C)cc1 (stereo not shown) | 11.7
O=[N+]([O-])c1ccc(-c2c(O)c3ccccc3c3nc4ccccc4nc23)cc1 | 18
O=C(COC(=O)c1ccccc1O)Nc1cc([N+](=O)[O-])ccc1Cl | -21.5
COc1ccc(CSc2ccc(-c3nc4ccccn4c3NCc3ccccc3)cc2OC)cc1.O=C(O)C(F)(F)F | 8.68
